Reference: article PMC4336329 (PLoS ONE, 2015)
About 2,200 (0.71%) of roughly 310,000 compounds showed an effect of 50% or more. The effect is printed as a negative number. This is one part of the list.

Biological target: human ether-à-go-go-related gene (hERG) potassium channel (human, UniProt Q12809)
Assay: primary screen, population patch clamp on CHO cells stably expressing hERG

Chain of human ether-à-go-go-related gene (hERG) potassium channel (Q12809 whole entry, looked up): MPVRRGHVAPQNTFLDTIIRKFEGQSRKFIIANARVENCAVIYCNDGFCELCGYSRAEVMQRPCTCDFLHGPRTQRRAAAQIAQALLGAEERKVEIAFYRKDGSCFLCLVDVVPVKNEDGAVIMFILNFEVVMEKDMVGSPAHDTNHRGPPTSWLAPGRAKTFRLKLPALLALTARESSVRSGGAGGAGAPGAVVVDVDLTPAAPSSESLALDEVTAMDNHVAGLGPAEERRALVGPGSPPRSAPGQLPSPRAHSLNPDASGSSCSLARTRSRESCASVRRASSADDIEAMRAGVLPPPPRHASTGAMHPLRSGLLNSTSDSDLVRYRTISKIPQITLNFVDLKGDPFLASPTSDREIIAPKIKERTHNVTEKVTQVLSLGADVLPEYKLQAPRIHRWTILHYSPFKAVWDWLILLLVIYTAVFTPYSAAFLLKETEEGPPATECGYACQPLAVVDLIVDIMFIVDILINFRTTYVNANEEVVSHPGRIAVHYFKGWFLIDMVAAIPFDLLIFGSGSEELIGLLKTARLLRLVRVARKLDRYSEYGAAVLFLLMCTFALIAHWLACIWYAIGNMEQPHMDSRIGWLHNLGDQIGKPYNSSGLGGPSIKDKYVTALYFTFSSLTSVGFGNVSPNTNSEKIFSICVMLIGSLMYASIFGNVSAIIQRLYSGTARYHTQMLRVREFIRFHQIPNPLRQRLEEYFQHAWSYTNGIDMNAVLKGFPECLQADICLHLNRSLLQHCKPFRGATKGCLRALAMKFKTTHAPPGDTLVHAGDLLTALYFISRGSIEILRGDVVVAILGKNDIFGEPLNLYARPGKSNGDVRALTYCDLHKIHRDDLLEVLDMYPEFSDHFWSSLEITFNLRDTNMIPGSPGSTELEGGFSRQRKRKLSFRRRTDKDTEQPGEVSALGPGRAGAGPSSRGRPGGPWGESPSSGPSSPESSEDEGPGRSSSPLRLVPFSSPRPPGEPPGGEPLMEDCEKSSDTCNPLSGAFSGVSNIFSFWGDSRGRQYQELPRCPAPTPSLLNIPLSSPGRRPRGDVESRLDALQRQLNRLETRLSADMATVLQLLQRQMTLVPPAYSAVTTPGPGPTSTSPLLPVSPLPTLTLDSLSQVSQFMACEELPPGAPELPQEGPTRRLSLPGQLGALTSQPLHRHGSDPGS

Row | Compound | hERG current change (%, negative = inhibition) at 1uM [%]
1 | COc1cccc(CNc2ncc(Br)cc2Br)c1O | 13
2 | CC(C)Oc1ccc(CNC(=O)CCCN2C(=O)C(c3ccccc3)Oc3cccnc32)cc1 (stereo not drawn) | 15.9
3 | CC1CC(c2ccccc2)=Nc2ccccc2N1 (stereo not drawn) | 13.6
4 | CCN(CC)S(=O)(=O)c1ccc(Cl)c(C(=O)Nc2cccnc2)c1 | -17
5 | O=C1CN2NC(=S)N(c3ccccc3)C2=CN1c1ccc(Cl)cc1 | 12.7
6 | COc1ccc([N+](=O)[O-])cc1NC(=O)COC(=O)C1CC1 | 9.91
7 | COc1ccc(/C(C)=N/OCC(=O)N=Nc2c(O)[nH]c3ccc(Br)cc23)cc1 | 3.04
8 | Cc1cc(C)n(-c2nc(-c3cccc(Cl)c3)cs2)n1 | 4.61
9 | CC(C)(C)C(=O)NC1CCN(C(=O)N2CCCC2)CC1 | 15
10 | Cc1ccnc2ccc(SC(F)(F)F)cc12 | -0.418
11 | CC(C)COP(=O)(OCC(C)C)C(O)c1ccc(F)cc1 (stereo not drawn) | 7.09
12 | O=C(CSc1nnc2ccc(-c3ccc(F)cc3)nn12)N1CCCC1 | 4.22
13 | CN(C)C=O.NS(=O)(=O)c1cccc(NC(=O)CSc2nc3nc(-c4cccs4)cc(C(F)(F)F)c3c(=O)[nH]2)c1 | 9.16
14 | CNC(=S)N(Cc1cc2cc(C)cc(C)c2[nH]c1=O)C1CCCC1 | 5.88
15 | Cc1cnc(C(=O)OCC(=O)C23CC4CC(CC(C4)C2)C3)cn1 | 9.09
16 | COc1ccc(NC(=O)c2cccc(N3C(=O)c4cccc([N+](=O)[O-])c4C3=O)c2)cc1 | 12.4
17 | C[C@H](NC(=O)c1cc2cc(Cl)ccc2n1C)C(=O)N1CCC[C@H]1C(=O)O | 10.8
18 | Cc1ccc(NC(=O)COC(=O)CN2C(=O)NC3(CCCC3)C2=O)cc1S(=O)(=O)N(C)C | 7.79
19 | CC(=O)NC(=S)c1c(N)n(Cc2ccccc2)c(=O)n(C)c1=O | 14.7

Row | Compound | hERG current change (%, negative = inhibition) at 1uM [%]
20 | CCc1nnc2c(N(C)S(=O)(=O)c3ccc(C)cc3)nc3ccccc3n12 | 10
21 | COc1ccccc1NC(=O)CSc1nnc(-c2ccoc2C)o1 | 13.7
22 | CCCCn1nnnc1NCc1ccc(C)s1 | 15
23 | O=C(NC(=S)NCC1CCCO1)c1ccccc1 (stereo not drawn) | 11.7
24 | Cc1ccc(Cl)cc1NC(=O)C1COc2ccccc2O1 (stereo not drawn) | 19.1
25 | CC1Sc2ccc(S(=O)(=O)CCC(=O)NC3CCCCCC3)cc2NC1=O (stereo not drawn) | 10.4
26 | C=CCn1c(O)c(/C(C)=N/N2CCN(C)CC2)c(=O)[nH]c1=O | 15.4
27 | COc1ccccc1CCc1nnc(CCC(=O)N(C)Cc2ccncc2C)o1 | 16.2
28 | CCN(CC)S(=O)(=O)c1ccc(NN=C(C#N)C#N)cc1 | -2.41
29 | CCOc1ccc(-c2nc(CSc3nnc(C)s3)cs2)cc1OC | 12.2
30 | CC(=O)O[C@@H]1[C@H]2[C@@H](C[C@@H](C)[C@@H]3CCC(=O)[C@@]13C)OC(=O)[C@@H]2C | 7.16
31 | O=C(Nc1nccs1)c1ccccn1 | -2.14
32 | Cc1ccccc1OCc1nc(-c2ccc(-n3cccc3)cc2)no1 | 12.5
33 | O=C(NCCS(=O)(=O)N1CCN(c2ccccc2)CC1)c1cccc(F)c1 | 10.6
34 | Cl.c1ccc(CNc2ccc3c(c2)ncn3C2CCCCC2)nc1 | -2.25
35 | O=C1NCCN(Cc2ccoc2)C1CC(=O)N(CCO)Cc1ccccc1 (stereo not drawn) | 21
36 | O=C(CCC(=O)Nc1cccc(C(F)(F)F)c1)NCC1CCCO1 (stereo not drawn) | 10
37 | CCOC(=O)c1c(-c2cccs2)csc1NC(=O)CCCC(=O)O | 1.67
38 | CC1CN(C2CC(C)(C)NC(C)(C)C2)CCC1=O (stereo not drawn) | 7.17

Row | Compound | hERG current change (%, negative = inhibition) at 1uM [%]
39 | O=C1N(Cc2cccnc2)C[C@@H]2C[C@@H](c3ccccc3C#Cc3ccccc3)N3CCC[C@@]123 | -10.9
40 | C[C@H](C(=O)C=[N+]=[N-])N1C(=O)c2ccccc2C1=O | 11.7
41 | CC1=NC(=O)C(N=Nc2cccc(O)c2)N1c1ccccc1 (stereo not drawn) | 8.56
42 | Cc1cc(/C(N)=N/OC(=O)Nc2cccc(C(F)(F)F)c2)no1 | 1.8
43 | COc1ccc(NC(=O)CC2C(=O)N(c3ccc(Cl)cc3)C(=S)N2CCc2ccncc2)cc1 (stereo not drawn) | 4.39
44 | COc1ccc(CCNC(=O)CSc2nnc(-c3cccc(C)c3)o2)cc1OC | -23.5
45 | c1ccc(-n2ncc3c(NCCCN4CCOCC4)ncnc32)cc1 | -2.81
46 | CC(=O)Nc1ccc(N2C(=O)CC(c3ccccc3)CC2=O)cc1 | 14.6
47 | Cc1ccc(OCC(=O)NNC(=O)c2ccc(NC(=O)C3CC3)cc2)c(C)c1 | 20.1
48 | Cc1nn2c(-c3cccc(NC(=O)c4ccco4)c3)nnc2c2ccccc12 | 6.45
49 | COc1ccccc1C(=O)NCC(=O)N/N=C/c1cc(Br)ccc1OCc1ccccc1 | 9.76
50 | O=C(COC(=O)CSc1ccc(Br)cc1)NCc1ccco1 | 3.71
51 | COc1cc(OC)cc(-c2c(C#Cc3ccsc3)c3cc(-c4cccc5[nH]ccc45)ccc3n2C)c1 | 8.82
52 | CCOC(=O)c1c(N=CN(C)C)c(C#N)n2c1CCC2 | 13.7
53 | O=C(NCC1COc2ccccc2O1)c1ccc(-n2cncn2)c([N+](=O)[O-])c1 (stereo not drawn) | -0.414
54 | COc1cc(CNc2ccccc2)c([N+](=O)[O-])cc1OC.O=C(O)C(=O)O | 7.45
55 | CCC1(C)Cc2ccccc2C(=O)N1 (stereo not drawn) | 15.5
56 | O=C(Nc1ccn(Cc2ccccc2F)n1)c1ccc(COc2ccc(Br)cc2)cc1 | -2.55
57 | O=C(Cn1nnc(-c2ccc([N+](=O)[O-])cc2)n1)NNC(=O)c1ccccc1 | 16.9
